The source gives no read counts; variants with many changes may rest on few reads.

The chains are these.
B1: CPEB3 Ribozyme (parent)
chain: UAACAGGGGGCCACAGCAGAAGCGUUCACGUCGCAGCCCCUGUCAGAUUCUGGUGAAUCUGCGAAUUCUGCUGUAUAUCUC

Variants of B1 are the subject of the data set. Kind of data set: self-cleavage, relative activity (ratio to wild type); higher = more cleavage; in vitro, sequencing. In a few lines:
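Libraries of CPEB3 self-cleaving ribozyme mutants came from rounds of error-prone PCR and carried barcodes, which DNA sequencing matched to variants. In vitro transcription used T7 RNA polymerase at 37°C for 5 hours, with a further 15 min in DNase I before EDTA stopped the reaction; the ribozymes cleaved during both steps. The RNA was reverse transcribed with template switching and sequenced on Illumina. Relative activity is the cleaved/total read fraction of a variant divided by that of the unmutated ribozyme, averaged over three batches with at least 5 reads.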
Turning to A20U U25A A28G G63A A64G, the self-cleavage came to 0.1. A20U G30A U31C: the self-cleavage was found to be 0.1.

For the variant A20U A35U U72C, the self-cleavage came out at 0.05. As for A20U G42U U43C, the self-cleavage stood at 0.24. For A20U G30U G33U, the self-cleavage was 0.08. As to A20U A21C U54C U67C, the self-cleavage was 0.12. For A20U G53A U54C the value was 0.2; for A20U C23U U49C A56G A57G, 0.13. On to A20U U25C U26G A35G U72A U78C, for which the self-cleavage was 0.01.

For A20U A57G U80C, the self-cleavage amounted to 0.45. For A20U A21U A35G U48C U60A, the self-cleavage turned out to be 0.09.

Consider A20U C29U U41A, for which the self-cleavage is 0.21. Turning to A20U C40U G53A U54C, the self-cleavage turned out to be 0.13.

On to A20U A45U U51A A56U U69A U76A U78A, for which the self-cleavage came out at 0.14. As for A20U C40U A64G U72A, the self-cleavage was determined as 0.16.

As to A20U C34U U67C, the self-cleavage amounted to 0.14. Consider A20U A35U U76A, for which the self-cleavage was found to be 0.07. With A20U A21U U60G, the self-cleavage is 0.2. With A20U U25C C39A G63U the figure was 0.18.

On to A20U G30U U60C U74A A75G, for which the self-cleavage is 0.06. For A20U G22U A45U the value was 0.31; for A20U G24A U43C A56G, 0.18. Take A20U A35G A47G A57G: the self-cleavage turned out to be 0.33. As to A20U A35U C59G, the self-cleavage came out at 0.29.

As to A20U A21U U66C, the self-cleavage was found to be 0.32.

Consider A20G U72C U76C, for which the self-cleavage came to 0.3. For the variant A20U A64G U72C, the self-cleavage was determined as 0.28. A20U A21G U49C U54C A57U A75U: the self-cleavage was 0.08. As to A20U A28U C37A U58C, the self-cleavage worked out at 0.09. A20U C23U A64G U66C U69A: the self-cleavage is 0.1.

With A20U C29U A65G, the self-cleavage is 0.11.

Take A20U A21G U26C U31C C39U U60C A64U: the self-cleavage stood at 0.04. With A20G U69C A77G the figure was 0.51; with A20U C34A U80A, 0.04; with A20U C23A U72A A75U U80A, 0.04.

On to A20U U26A A57U U60C C62G A65G, for which the self-cleavage is 0.05.

Regarding A20U A28U U78C, the self-cleavage was 0.19. As to A20U U25C A28U U51A G63U, the self-cleavage turned out to be 0.12.

For A20U G52C U60C, the self-cleavage turned out to be 0.11. On to A20U A21G U25C G30C U41C C68A U78C, for which the self-cleavage was found to be 0.04.

With A20U G52A U78G, the self-cleavage amounted to 0.33. With A20G U76A U78C, the self-cleavage was 0.99. Consider A20U A45G A47G U49C U72A, for which the self-cleavage was found to be 0. With A20G U60C G61C, the self-cleavage was 0.09.

Take A20U A35U U51A U58C A64G U72A: the self-cleavage turned out to be 0.07. Turning to A20U U25C G30U U69G U76G, the self-cleavage was 0.04. For A20U G52U U80C the value was 0.45; for A20U A35U A56G, 0.12; for A20U U25C U31C A35U U41C A75G U78A, 0.14. With A20U G30A U43A A64U U76A U80C, the self-cleavage came out at 0.13. With A20G U66A U67A, the self-cleavage amounted to 0.33. With A20U A45G U54C the figure was 0.14. For A20U A45C U69C U72C the value was 0.24; for A20U U25C A28G A65G, 0.3; for A20U A21G C23U U31C A45G U72A U78A, 0.07. For A20U A47G U72C U76C A77G the value was 0.15; for A20U C34G C68G, 0.1; for A20U U25C A28G, 0.2. Turning to A20U C29U C38U, the self-cleavage is 0.14.

Regarding A20U A35G U41A A47G A57G U69A, the self-cleavage was found to be 0.08. For A20U A45G U67C U80A the value was 0.15; for A20G U54C G73U U80C, 1.16. Regarding A20U A47G A56G, the self-cleavage came to 0.19. For A20U A28U C39U A45G G55U, the self-cleavage came out at 0.15. For A20U U25C A35U U60C A75U the value was 0.05; for A20U C29U A47G U51G C59U A77U, 0.21; for A20U C32U U69A, 0.1. For the variant A20U A47G A65G, the self-cleavage stood at 0.29. For A20G U72C U74A the value was 1.01; for A20U C23U U41C U48A U74C, 0.21; for A20U A56G U74C A75U, 0.37. A20U U26A A45G U54C C62U U78C: the self-cleavage was 0.1. Turning to A20U G30U U43A A45G A47G U51C U67A, the self-cleavage was 0.05. Take A20U G73A A75U: the self-cleavage was determined as 0.41. For the variant A20U U25A A28U A35G C44U, the self-cleavage was determined as 0.02. Take A20G U60C U66C U72A: the self-cleavage is 0.23. For A20U A21G A28G U80C, the self-cleavage was 0.07. Take A20U U26A C29U U41C U51A A57G: the self-cleavage amounted to 0.06.

On to A20U A28G A35U, for which the self-cleavage is 0.22.

In the case of A20U A28U U66C, the self-cleavage was found to be 0.22. As to A20U C27A C38G G46U U48C U72C, the self-cleavage was 0.03. Regarding A20U C40U U72A, the self-cleavage is 0.11.

As to A20U A64C U66C, the self-cleavage turned out to be 0.11. In the case of A20G U54C U78C C81U, the self-cleavage is 0.99. Take A20U C37G U43A A56U: the self-cleavage was found to be 0.08. With A20U G36C A57G C59U the figure was 0.1. Regarding A20U U25C U26A A45G U69C, the self-cleavage is 0.05. For the variant A20G U58C A65G, the self-cleavage came to 0.12. For A20G U69C C71G, the self-cleavage stood at 0.29.

For A20U A28U U60A U72C, the self-cleavage stood at 0.13.

Consider A20G U58A U66C U78C U80C, for which the self-cleavage came out at 0.17. Turning to A20G U58A U60C, the self-cleavage worked out at 0.22. With A20U A28G G33A U54C U69C, the self-cleavage was 0.07. Consider A20U U25C A64G U72C A77U C79A, for which the self-cleavage was found to be 0.08. With A20U U25C U41C U49A U72A A75C the figure was 0.06; with A20U G24A A35U C37A U43C U60C A77G, 0.07; with A20U G22U U48C U78C U80A, 0.18. As for A20U A35C U60C, the self-cleavage is 0.16. Turning to A20U A28U A64G, the self-cleavage was found to be 0.08. Take A20U U25C A28G U66G: the self-cleavage came out at 0.3. On to A20U A56G U58C, for which the self-cleavage was 0.37. On to A20U U25A A35G C50U U58A U80C, for which the self-cleavage worked out at 0.05. Turning to A20U C38A U43A A45G A64G, the self-cleavage stood at 0.1.

On to A20U A45U U48A U80C, for which the self-cleavage worked out at 0.49. With A20U A64G U80C, the self-cleavage came to 0.21. With A20U A35C U48C the figure was 0.1; with A20G U69A U72G U80A, 0.2; with A20U G53C A64U U67C U69A, 0.12. With A20U C23A U31C the figure was 0.17; with A20G U58C U60C U69C, 0.2. In the case of A20U G30A U67A U69C, the self-cleavage was determined as 0.1. With A20U A28G A47G U78C the figure was 0.1. For A20G U54C U72C U76A the value was 0.85; for A20U G36A A45U, 0.12. A20G U60G U76C: the self-cleavage amounted to 0.23. Take A20U U25G A35U U72C: the self-cleavage stood at 0.17. For A20U U25A U69C U72C U80C the value was 0.06; for A20U C40U U76C, 0.25. A20U A21G U41C: the self-cleavage turned out to be 0.18. On to A20U A45C C62G, for which the self-cleavage turned out to be 0.16. In the case of A20U A56G A57G A64G, the self-cleavage is 0.09. On to A20U C23U U26C A35G C37U U43C, for which the self-cleavage stood at 0.09.

With A20U A64U U66C, the self-cleavage is 0.23. For A20G U66A U69C, the self-cleavage amounted to 0.24. As for A20U C32U A35G C44U, the self-cleavage came out at 0.07. Take A20U A28G U48C A56U: the self-cleavage was 0.22.

As to A20G U58C U69C, the self-cleavage worked out at 0.3. Consider A20U A35U U60C, for which the self-cleavage is 0.08. Consider A20U G24A U31G C40A A57G A64U U76C, for which the self-cleavage amounted to 0.07. As for A20U A47G U72C, the self-cleavage came to 0.23. Take A20U U25C U41A U72C: the self-cleavage amounted to 0.06.

Regarding A20G U67C A77G, the self-cleavage amounted to 0.96. Take A20G U66C U80C: the self-cleavage was 0.49. Take A20G U54G U60A U67C C68U: the self-cleavage worked out at 0.33. In the case of A20U U25C A28G A56G U72C, the self-cleavage was 0.22. A20U A56G A57G: the self-cleavage stood at 0.44. With A20U A21G G52U, the self-cleavage came to 0.18. As to A20U U25C A47G A56U, the self-cleavage turned out to be 0.14.

For the variant A20U A56U U78C, the self-cleavage was found to be 0.27. For A20U C29U U66C, the self-cleavage amounted to 0.09. With A20U A21G U31C G46C A64U C71U U80C, the self-cleavage is 0.07. For A20U A21G U41A U49C U78C the value was 0.07.

For A20U G36C U67C, the self-cleavage turned out to be 0.06.

A20G U60C U78C: the self-cleavage turned out to be 0.42.

For A20G U54C U60A, the self-cleavage was 0.51. For A20U A35G U66C U72C the value was 1.03. With A20U A35U U49C, the self-cleavage came to 0.15. As for A20U A47G U49C U54G A56U A75U, the self-cleavage was determined as 0.11. Take A20U A35G U69C: the self-cleavage was 0.48.

For the variant A20G U58A G63U, the self-cleavage was found to be 0.29. Take A20U C32U A56G: the self-cleavage was found to be 0.36. Take A20G U72A A75G: the self-cleavage stood at 1.03. With A20U A45G A65G U69A the figure was 0.23; with A20U G22A U41A, 0.13. With A20U G30U U41C U54G U67C the figure was 0.11. For the variant A20U C32A A56U, the self-cleavage is 0.19. For A20U G36U U41C G52A the value was 0.12; for A20G U58C U72C, 0.16. In the case of A20U G24A U25C U49C, the self-cleavage is 0.2. In the case of A20U G30A A35G U41C, the self-cleavage was determined as 0.06. A20U G24C U25C U31C U48C A56U U66C: the self-cleavage was 0.11. For A20U A21U U48C U80C, the self-cleavage is 0.21.

As for A20U C29A U43G, the self-cleavage turned out to be 0.44. For A20U A21G U31A U41C G55A G73A the value was 0.43. As to A20U U25C A35G U43C, the self-cleavage stood at 0.25. As for A20U A28U U43C, the self-cleavage came to 0.13.

A20U A28G U49C A65G U80A: the self-cleavage worked out at 0.08.

Values taken from the RNAGym collection of RNA variant scans (doi:10.1093/nar/gkz1192).
